Assay results published in patent US20110027186A1 (AGENCY FOR SCIENCE TECHNOLOGY AND RESEARCH A STAR, published 2011).

Columns and labels:
[1] = target: T1, TAZ (Transcriptional Coactivator with PDZ-Binding Motif), endogenous protein in human breast cancer cell … (human, UniProt Q9GZV5); assay: GST pulldown from Hs578T cell extract, immunoblot
T1 construct: Endogenous protein detected by immunoblot; also called WWTR1; TAZ/WWTR1

[2] = target: T2, YAP, endogenous protein in human breast cancer cell lysates (human, UniProt P46937-3 1-454); assay: GST pulldown from Hs578T cell extract, immunoblot
T2 construct: Endogenous protein detected by immunoblot; also called Yes-associated protein; endogenous YAP

T1 sequence (Q9GZV5 whole entry): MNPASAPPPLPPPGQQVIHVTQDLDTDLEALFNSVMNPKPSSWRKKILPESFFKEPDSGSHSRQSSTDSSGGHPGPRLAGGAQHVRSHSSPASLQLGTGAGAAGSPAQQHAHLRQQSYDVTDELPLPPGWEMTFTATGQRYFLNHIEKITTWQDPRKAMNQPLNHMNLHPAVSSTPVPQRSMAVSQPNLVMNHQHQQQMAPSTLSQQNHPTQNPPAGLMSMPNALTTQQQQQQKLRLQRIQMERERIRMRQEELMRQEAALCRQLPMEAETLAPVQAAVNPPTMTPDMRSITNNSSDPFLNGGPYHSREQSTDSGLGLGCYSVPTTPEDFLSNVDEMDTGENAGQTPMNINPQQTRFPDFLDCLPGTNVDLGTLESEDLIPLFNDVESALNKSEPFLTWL

- binding result [1]: no binding
- binding result [2]: no binding
B1: GST (other)
chain: not shown
notes: Negative control of the pulldown; also called glutathione-S-transferase; immobilized GST control
